Measurements taken from PubChem BioAssay (NCATS).
The shares of active, inactive and inconclusive entries below differ from those in the screen. For part of these data: Potencies of inconclusive entries are doubtful fits and often do not repeat. Active and inactive are the calls of the source. Unless noted, the call rests on the fitted dose curve; in most records, active means well fitted curve in the direction sought with a large enough effect; inconclusive means small, poorly fitted or top-dose-only effect, or another doubt; inactive means no such curve, though single readings can be large; an effect the other way counts as inactive or inconclusive.

Assays:
[1] = Primary qHTS for inhibitors of nuclear receptor binding SET domain protein 2 (NSD2) in an RCH-ACV wild type WT cells (2C) (AID 1645877); details: activity change, negative = cell killing: at 44.9 µM (top of the series) unless noted; further: nearly all actives have a fitted effect of over 70% in size; further: potency means the concentration at half of the fitted maximal effect
[2] = Primary fluorescence-based thiol-reactive (MSTI) qHTS assay for identification of artifact compounds. (AID 1845221); further: potency means the concentration at half of the fitted maximal effect;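 further: thiol-reactive compounds lower the probe fluorescence signal; nearly all actives have a fitted effect of over 65% in size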
Method in brief: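 One-hour, room-temperature, dark incubation of compound with 4 uM MSTI in PBS (pH 7.4, 2% DMSO) precedes a fluorescence read at 525 nm excitation, 598 nm emission; Hill-equation fitting yields concentration-response values.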

[3] = test system: HaCat; test: Cytotoxic Profiling of Annotated Libraries Using Quantitative High-Throughput Screening (AID 1296008); details: Five cell lines viability, CellTiter-Glo ATP luminescence, 48-72 h; max response: hits give low values; further: nearly all actives have a fitted effect of over 60% in size; further: potency means the concentration at half of the fitted maximal effect
Method in brief: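 Compounds were pin-transferred onto cells and incubated 48 or 72 hr at 37 degree Celsius, 95% humidity. CellTiter-Glo was added, plates sat 10 min at room temperature, then ATP-coupled luminescence was imaged as the viability read-out.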

[4] = test system: CAOV3; test: Primary qHTS to identify gynecologic anti-cancer compounds using libraries of approved drugs and bioactive compounds (AID 1345084); details: Gynecologic cancer cell panel viability, ATPlite luminescence, 48 h; series mostly up to 57.5 µM; further: nearly all actives have a fitted effect of over 55% in size; further: potency means the concentration at half of the fitted maximal effect; on activity change, negative = cytotoxicity: on the % scale 0 is the no-effect control and ±100 the full control effect
Method in brief: (§1)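 In this quantitative HTS, cell killing is estimated from loss of ATP-dependent luciferase light. Cells see five compound concentrations over a 48 h exposure.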

[5] = test system: Zika virus NS2B-NS3 protease (linked construct); test: Primary screen NINDS Rhodamine qHTS for Zika virus inhibitors (AID 1347160); further: nearly all actives have a fitted effect of over 55% in size; further: potency means the concentration at half of the fitted maximal effect; on activity change, negative = inhibition: on the % scale 0 is the no-effect control and ±100 the full control effect
Method in brief: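 Single-chain NS2B-NS3 protease, 25 nM, pH 8.0; compounds preincubated 15 min. Activity: Rhodamine110 release from 1.5 microM substrate over 15 min, room temperature, data fitted to 4-parameter Hill.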

[6] = target: Cytochrome P450 2D6 (Homo sapiens) (UniProt P10635); test: Cytochrome P450 family 2 subfamily D member 6 (CYP2D6) small molecule antagonists: luciferase biochemical (cell-free) qHTS assay (AID 1645840; active means well fitted curve in the direction sought with a large enough effect in the repeat runs; inconclusive means weak or mixed curves; inactive means no such curve, though single readings can be large; an effect the other way counts as inactive or inconclusive)
Sequence of UniProt P10635 (P10635 whole entry, looked up): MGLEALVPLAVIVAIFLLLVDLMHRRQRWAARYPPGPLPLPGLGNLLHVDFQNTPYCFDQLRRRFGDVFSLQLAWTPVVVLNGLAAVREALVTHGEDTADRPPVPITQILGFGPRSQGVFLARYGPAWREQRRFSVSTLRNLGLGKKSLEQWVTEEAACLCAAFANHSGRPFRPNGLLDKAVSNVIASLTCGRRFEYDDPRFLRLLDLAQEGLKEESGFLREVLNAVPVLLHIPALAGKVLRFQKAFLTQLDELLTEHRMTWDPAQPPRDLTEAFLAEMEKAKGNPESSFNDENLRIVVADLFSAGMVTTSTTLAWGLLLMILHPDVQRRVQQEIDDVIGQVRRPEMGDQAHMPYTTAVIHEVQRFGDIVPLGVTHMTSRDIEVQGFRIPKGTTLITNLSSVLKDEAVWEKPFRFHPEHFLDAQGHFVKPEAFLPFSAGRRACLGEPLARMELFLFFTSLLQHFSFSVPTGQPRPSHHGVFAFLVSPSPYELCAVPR
Method in brief: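 P450-Glo CYP2D6 system: proluciferin substrate converted by enzyme to luciferin, read by luminescence proportional to activity. Enzyme-substrate mix with compound 10 min at room temperature, then NADPH regeneration 1 h before detection reagent.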

[7] = test system: CASKI; test: Primary qHTS to identify gynecologic anti-cancer compounds using libraries of approved drugs and bioactive compounds (AID 1345084); details: Gynecologic cancer cell panel viability, ATPlite luminescence, 48 h; series mostly up to 57.5 µM; further: nearly all actives have a fitted effect of over 55% in size; further: potency means the concentration at half of the fitted maximal effect; on activity change, negative = cytotoxicity: on the % scale 0 is the no-effect control and ±100 the full control effect
Method in brief: as §1

[8] = test system: Es-2; test: as above; details: Gynecologic cancer cell panel viability, ATPlite luminescence, 48 h; series mostly up to 57.5 µM
Method in brief: as §1

[9] = test system: HeLa; test: as above; details: Gynecologic cancer cell panel viability, ATPlite luminescence, 48 h; series mostly up to 57.5 µM
Method in brief: as §1

[10] = test system: Hek293T; test: as above; details: Gynecologic cancer cell panel viability, ATPlite luminescence, 48 h, control line for the selectivity index; series mostly up to 57.5 µM
Method in brief: as §1

[11] = test system: JEG-3; test: as above; details: Gynecologic cancer cell panel viability, ATPlite luminescence, 48 h; series mostly up to 57.5 µM
Method in brief: as §1

[12] = test system: SKOV3; test: as above; details: Gynecologic cancer cell panel viability, ATPlite luminescence, 48 h; series mostly up to 57.5 µM
Method in brief: as §1

[13] = test system: Tov-21-G; test: as above; details: Gynecologic cancer cell panel viability, ATPlite luminescence, 48 h; series mostly up to 57.5 µM
Method in brief: as §1

[14] = test system: Tov112D; test: as above; details: Gynecologic cancer cell panel viability, ATPlite luminescence, 48 h; series mostly up to 57.5 µM
Method in brief: as §1

[15] = Primary qHTS for inhibitors of nuclear receptor binding SET domain protein 2 (NSD2) in an isogenic RCH-ACV NSD2 p.E1099K mutant (9B) (AID 1645876); details: activity change, negative = viability loss: at 44.9 µM (top of the series) unless noted; further: nearly all actives have a fitted effect of over 70% in size; further: potency means the concentration at half of the fitted maximal effect
[16] = test system: Zika virus NS2B-NS3 protease (unlinked complex); test: Primary screen GU Rhodamine qHTS for Zika virus inhibitors: Unlinked NS2B-NS3 protease assay (AID 1347159); details: Recombinant ZIKV NS2B-NS3 protease, Rhodamine110 substrate fluorescence; activity change, negative = inhibition: at 107 µM (top of the series); further: nearly all actives have a fitted effect of over 60% in size; further: potency means the concentration at half of the fitted maximal effect
Method in brief: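 Unlinked NS2B/NS3, 25 nM; Rhod110 peptide, 1.5 microM; compounds, up to 114 microM. Reaction run 15 min at RT in 10 mM Tris-HCl pH 8.0, 0.01% Tween 20; kinetic fluorescence change fitted with a 4-parameter Hill model.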

[17] = test system: PA-1; test: Primary qHTS to identify gynecologic anti-cancer compounds using libraries of approved drugs and bioactive compounds (AID 1345084); details: Gynecologic cancer cell panel viability, ATPlite luminescence, 48 h; series mostly up to 57.5 µM; further: nearly all actives have a fitted effect of over 55% in size; further: potency means the concentration at half of the fitted maximal effect; on activity change, negative = cytotoxicity: on the % scale 0 is the no-effect control and ±100 the full control effect
Method in brief: as §1

[18] = P-glycoprotein substrates identified in KB-8-5-11 adenocarcinoma cell line, qHTS therapeutic library screen (AID 1346987); details: activity change, negative = cytotoxicity: at 44.5 µM (top of the series); further: on the % scale 0 is the no-effect control and ±100 the full control effect; nearly all actives have a fitted effect of over 65% in size
Method in brief: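 Human cervical adenocarcinoma KB-8-5-11 cells, selected in colchicine to over-express P-gp and assayed without it, were exposed for 72 h to titrated compounds. An ATP-based luminescent viability signal gave AC50.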
Tags describe the fitted curve by direction and shape.

Question: Which results are given for `C[C@]12C[C@@H](O)[C@@H]3C[C@@]1(O[C@@H]1O[C@H](CO)[C@@H](O)[C@H](O)[C@H]1O)[C@]3(COC(=O)c1ccccc1)C(=O)O2`?
Answer: Potency [1]: inactive; Potency [2]: active: 13 µM; Potency [3]: inconclusive: 3.17 µM [inhibitor, partial curve, poor fit]; Potency [4]: inconclusive: 3.98 µM [cytotoxic, single point]

Question: For `COC1OC(O)C2(CCC3(O2)C(C)CC2OC(=O)C4(C)CCCC3(C)C24)C1O` (configuration not stated), which Potency [2] is on record?
Answer: inconclusive: 16.5 µM [inhibitor, partial curve]

Question: And the outcome [3]?
Answer: inactive

Question: What about the Potency [4] of the same molecule?
Answer: inactive

Question: Which Potency [5] does the source give for `CC(C)Oc1ccc(C(=O)NC(CNC(=O)CN(C)C)Cc2ccc(-c3cn4cccc(C(C)O)c4n3)cc2)cc1Cl` (configuration not stated) here?
Answer: inactive

Question: And the Potency [6]?
Answer: inconclusive: 30.1 µM [inhibitor, partial curve, poor fit]

Question: What about the Potency [1] of the same molecule?
Answer: active: 0.0649 µM

Question: And the Potency [3]?
Answer: inconclusive: 0.651 µM [inhibitor, full curve]

Question: And the Potency [7]?
Answer: inconclusive: 0.251 µM [cytotoxic, full curve, poor fit]

Question: What about the Potency [8] of the same molecule?
Answer: inconclusive: 0.316 µM [cytotoxic, full curve, poor fit]

Question: And the Potency [9]?
Answer: active: 0.251 µM

Question: What about the Potency [10] of the same molecule?
Answer: inconclusive: 0.316 µM [cytotoxic, full curve]

Question: And the Potency [11]?
Answer: inactive

Question: And the Potency [12]?
Answer: inactive

Question: And the Potency [13]?
Answer: inconclusive: 0.199 µM [cytotoxic, full curve]

Question: For `CC1=C2C(=O)C=C(CO)C2C2OC(=O)C(CS(=O)(=O)O)C2C(OC(=O)Cc2ccc(O)cc2)C1` (configuration not stated), which Potency [1] is on record?
Answer: inactive

Question: And the Potency [2]?
Answer: active: 3.67 µM

Question: What about the max response [3] of the same molecule?
Answer: inactive: -1.36%

Question: And the Potency [8]?
Answer: inactive

Question: And the Potency [14]?
Answer: inactive

Question: With `CCCC1(c2ccccc2)NC(=O)N(CC(=O)N(C)Cc2c(F)cccc2Cl)C1=O` (configuration not stated) as the molecule, how does the Potency [5] read?
Answer: inconclusive: 39.8 µM [inhibitor, single point]

Question: And the Potency [6]?
Answer: inconclusive: 26.8 µM [inhibitor, partial curve, poor fit]

Question: And the Potency [15]?
Answer: inactive

Question: What about the Potency [1] of the same molecule?
Answer: inactive

Question: And the Potency [3]?
Answer: inconclusive: 0.92 µM [inhibitor, full curve, poor fit]

Question: What about the Potency [4] of the same molecule?
Answer: inactive

Question: And the Potency [12]?
Answer: inconclusive: 39.8 µM [cytotoxic, single point]

Question: Which Potency [16] does the source give for `CC1(O)CC(O)C2(O)C=COC(O[C@@H]3O[C@H](CO)[C@@H](O)[C@H](O)[C@H]3O)C12` (some centres not stated) here?
Answer: inconclusive: 31.6 µM [inhibitor, partial curve]

Question: What about the Potency [3] of the same molecule?
Answer: inconclusive: 4.53 µM [inhibitor, partial curve, poor fit]

Question: What about the Potency [8] of the same molecule?
Answer: inactive

Question: What does the source list for `C=C1CC23CC(=O)C4C(CO)(CO)CCCC4(C)C2CCC1C3` (configuration not stated)?
Answer: outcome [3]: inactive; Potency [7]: inactive; Potency [17]: inactive; Potency [13]: inactive

Question: What does the source list for `Cc1ccccc1N1CCN(S(=O)(=O)C[C@]23CC[C@H](C[C@@H]2NC(=O)[C@@H](N)CCS(C)(=O)=O)C3(C)C)CC1`?
Answer: Potency [18]: inactive; Potency [1]: inconclusive: 23 µM [inhibitor, partial curve, poor fit]; max response [3]: inactive: 0.627%; Potency [4]: inconclusive: 25.1 µM [rising, single point]; Potency [13]: inactive

Question: For `COc1cc(Br)c(S(=O)(=O)Nc2ccc(C(F)(F)F)c(O[C@@H]3CCN(C)C3)c2)cc1OC`, which Potency [5] is on record?
Answer: inactive

Question: What about the Potency [6] of the same molecule?
Answer: active: 23.9 µM

Question: What about the Potency [15] of the same molecule?
Answer: inactive

Question: What about the Potency [3] of the same molecule?
Answer: inconclusive: 6.51 µM [inhibitor, single point]

Question: What about the Potency [4] of the same molecule?
Answer: inactive

Question: What does the source list for `COc1cc(O)cc(C)c1C(=O)OC1C(CO)OC(OC2C(O)C(O)C(O)C(O)C2O)C(O)C1O` (configuration not stated)?
Answer: Potency [15]: inactive; Potency [2]: inconclusive: 9.22 µM [inhibitor, partial curve]; Potency [3]: inconclusive: 14.2 µM [inhibitor, partial curve, poor fit]; Potency [7]: inactive; Potency [12]: inactive

Question: With `CCC(C)C(=O)O[C@H]1CCC=C2C=C[C@H](C)[C@H](CC[C@@H](O)C[C@@H](O)CC(=O)O)[C@H]21` (some centres not stated) as the molecule, how does the Potency [16] read?
Answer: inactive

Question: What about the Potency [15] of the same molecule?
Answer: inconclusive: 12.6 µM [inhibitor, single point]

Question: What about the Potency [1] of the same molecule?
Answer: inconclusive: 11.2 µM [inhibitor, single point]

Question: And the Potency [3]?
Answer: inconclusive: 14.2 µM [inhibitor, partial curve, poor fit]

Question: And the Potency [7]?
Answer: inactive

Question: For `C[C@H](C(=O)NC1CCCC1)N(C(=O)Cn1nnc(-c2ccc3c(c2)OCO3)n1)C1CCCCC1`, which Potency [15] is on record?
Answer: inconclusive: 32.5 µM [inhibitor, partial curve, poor fit]

Question: And the Potency [1]?
Answer: inconclusive: 16.3 µM [inhibitor, partial curve, poor fit]

Question: And the Potency [3]?
Answer: inconclusive: 18.4 µM [inhibitor, partial curve, poor fit]

Question: What about the Potency [7] of the same molecule?
Answer: inactive

Question: What about the Potency [8] of the same molecule?
Answer: inactive

Question: With `C=C1C2CCC3C(CCC4[C@@]3(C)CCC[C@@]4(C)C(=O)O)(C2)[C@@H]1OC(=O)/C(C)=C\C` (some centres not stated) as the molecule, how does the Potency [16] read?
Answer: active: 6.31 µM

Question: What about the Potency [5] of the same molecule?
Answer: active: 10 µM

Question: What about the Potency [1] of the same molecule?
Answer: inactive

Question: What about the Potency [2] of the same molecule?
Answer: inactive

Question: What about the max response [3] of the same molecule?
Answer: inactive: -0.634%

Question: What about the Potency [8] of the same molecule?
Answer: inconclusive: 28.2 µM

Question: And the Potency [9]?
Answer: inconclusive: 31.6 µM

Question: What about the Potency [10] of the same molecule?
Answer: inconclusive: 1.12 µM

Question: And the Potency [17]?
Answer: inconclusive: 31.6 µM

Question: What about the Potency [13] of the same molecule?
Answer: inconclusive: 0.562 µM

Question: And the Potency [14]?
Answer: inconclusive: 158 µM

Question: Which Potency [1] does the source give for `OC[C@H]1O[C@@H](Oc2cc(O)c3c(c2)O[C@@H](c2ccc(O)cc2)[C@H](O)C3)[C@H](O)[C@@H](O)[C@@H]1O` here?
Answer: inactive

Question: What about the Potency [2] of the same molecule?
Answer: inconclusive: 4.62 µM [inhibitor, partial curve, poor fit]

Question: What about the Potency [3] of the same molecule?
Answer: inconclusive: 3.17 µM [inhibitor, partial curve, poor fit]

Question: And the Potency [8]?
Answer: inactive

Question: What about the Potency [12] of the same molecule?
Answer: inactive

Question: Which results are given for `CCOc1nc2c(N)ncnc2n1CC`?
Answer: outcome [3]: inactive; Potency [8]: inactive

Question: With `Cc1noc(=O)c2ccc(NC(=O)C(O)(CC(C)(C)c3cccc4c3OCC4)C(F)(F)F)cc12` (configuration not stated) as the molecule, how does the Potency [16] read?
Answer: inconclusive: 89.1 µM [inhibitor, single point]

Question: And the Potency [6]?
Answer: inconclusive: 26.8 µM [inhibitor, partial curve]

Question: What about the Potency [15] of the same molecule?
Answer: inconclusive: 16.3 µM [inhibitor, partial curve]

Question: What about the Potency [1] of the same molecule?
Answer: inconclusive: 16.3 µM [inhibitor, partial curve]

Question: What about the outcome [3] of the same molecule?
Answer: inactive

Question: And the Potency [4]?
Answer: inconclusive: 10 µM [rising, partial curve, poor fit]

Question: What about the Potency [14] of the same molecule?
Answer: inactive
